According to PubChem BioAssay AID1347073 (National Center for Advancing Translational Sciences (NCATS), 2019):
Among all 45,000 compounds or so, about 200 (0.44%) were called active. Inconclusive results (about 7%) are left out. Calls follow the shape of the dose curve; as a rule, active = well fitted activation curve with a large enough effect; inconclusive = small, poorly fitted or top-dose-only effect; inactive = no such curve, though single readings can be large or run the other way. Some of the results follow. Peptide text beside a SMILES is read from it. * marks the point of attachment. Boc = CC(C)(C)OC(=O)*; Bn = c1ccc(C*)cc1

assay: qHTS of TDP-43 Inhibitors: NCGC Sytravon Library Screen; settings: yeast TDP-43 toxicity rescue, BacTiter-Glo growth, 24 h; series mostly up to 46.1 µM; growth rescue (activation): at the top concentration; also: 0% is about no effect; nearly all actives have a fitted effect of over 55% in size
Procedure, shortened: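 TDP-43-expressing yeast, pregrown in raffinose, seeded at OD600 0.02 in galactose medium with compound for 24 hr at 30 deg C. Growth read by BacTiter-Glo luminescence, so rescue of toxicity appears as activation.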

Compound | growth rescue (activation)
CCOC(=O)c1c(C)oc2cc(Cl)c(O)c(CN(C)C)c12 | inactive: 24.9%
Cc1noc(C)c1C(=O)OCC(=O)NCCc1ccc(S(N)(=O)=O)cc1 | inactive: 11.9%
CCN(Cc1nc2ccccc2c(=O)[nH]1)C(=O)c1cccc(NC(=O)c2cccs2)c1 | inactive: -1.55%
CCOC(=O)c1ccc(COC(=O)CNS(=O)(=O)c2ccccc2)cc1 | inactive: 3.69%
CC(C)CC(NC(=O)C(CC(C)C)NC(=O)C(Cc1ccc(OCc2ccccc2)cc1)NC(=O)OC(C)(C)C)C(N)=O (stereo not drawn) (Boc-Tyr(Bn)-Leu-Leu-NH2; configuration not given here) | inactive: -19.7%
O=C(NNC(=O)c1cccs1)c1cccnc1 | inactive: -1.62%
CCN(CC)C(=O)c1cccc(-c2csc(C(C)(NC(C)=O)c3ccccc3)n2)c1 (stereo not given) | inactive: 3.35%
CC1=NN(C(=O)c2ccccc2Cl)C(O)(c2cccnc2)C1 (stereo not given) | inactive: -10.3%
COc1ccc(C(=O)OCC(=O)c2ccc3c(c2)NC(=O)CO3)cc1[N+](=O)[O-] | inactive: -6.6%
CC(=O)Oc1ccccc1C(=O)Nc1ccccc1C(=O)N1CCCCC1 | inactive: -2.14%
COc1ccc(-n2nc(C(=O)NCC(=O)Nc3cc(OC)c(OC)c(OC)c3)c3ccccc3c2=O)cc1Cl | inactive: 0.212%
Fc1ccc(CN2C3=NCCCN3c3ccccc32)cc1 | inactive: 22.6%
O=C(OCC(=O)N1CCCC1)c1cc(Cl)ccc1[N+](=O)[O-] | inactive: -1.14%
COc1ccc(NC(=O)C/C(C)=N/NC(=O)c2ccco2)c([N+](=O)[O-])c1 | inactive: 3.48%
Cc1ccc(-c2nc3ncccc3o2)cc1NC(=S)NC(=O)c1ccco1 | inactive: 4.1%
CCNC(=O)n1cc(-n2cncn2)c(-c2ccccc2)n1 | inactive: 0.992%
O=C1CN(C(=O)COc2ccc(Cl)c(Cl)c2)c2ccccc2N1 | inactive: 16.3%
CCOC(=O)C1CCCN(C(=O)c2ccc(Cl)c(S(=O)(=O)N3CCCCCC3)c2)C1 (stereo not given) | inactive: 12.5%
Clc1ccc2c(NCc3ccccc3)ccnc2c1 | inactive: 5.72%
CCOC(=O)c1c(NC(=O)Cn2cnc([N+](=O)[O-])n2)sc(C)c1C | inactive: 4.65%
COc1ccc(-c2csc(=NCCO)n2-c2ccccc2)cc1 | inactive: 16.2%
Cc1c(Br)cccc1NC(=O)C1(C)CCN1Cc1ccc(OC(C)C)cc1 (stereo not given) | inactive: 18.8%
COc1ccc(N2C(=O)C3CCCCC3C2=O)cc1NC(=O)c1ccccc1 (stereo not given) | inactive: 0.124%
O=C(NC1CCCC1)c1cccc(Oc2ccccc2)c1 | inactive: 19.7%
CCNC(=S)Nc1ccc2c(c1)c(=O)n(C)n2-c1ccc(C(C)(C)C)cc1 | inactive: 14.7%
C=CCn1c(SCC(N)=O)nnc1-c1cnccn1 | inactive: -7.51%
CN(C#N)c1nc(N2CCOCC2)nc(N2CCOCC2)n1 | inactive: 31.6%

Compound | growth rescue (activation)
Nc1nc(Cl)cc(Oc2ccccc2F)n1 | inactive: 34.1%
CCOc1ncccc1C(=O)Nc1c(C)n(C)n(-c2ccccc2)c1=O | inactive: 16.1%
Cc1ccc(OCC(=O)Nc2nnc(S(=O)(=O)N3CCC(C)CC3)s2)cc1 | inactive: -7.73%
COc1ccc(C(=O)O/N=C(/c2ccccc2)c2ccncc2)cc1 | inactive: 6.51%
COC(=O)C1=NNC(C(=O)c2ccco2)C1c1ccccc1 (stereo not given) | inactive: 5.14%
CCN1CCN(CCC(=O)Nc2ccc(Br)cc2)CC1 | inactive: -5.76%
CCCC(c1nnnn1CS(=O)(=O)c1ccc(C)cc1)N1CCN(C2CCCC2)CC1 (stereo not given) | inactive: -3.69%
CCCOc1ccc(/C=N/NC(=O)CSc2ccccn2)cc1OC | inactive: 16.6%
Cc1ccc(C(=O)NN(CCC#N)C2=NS(=O)(=O)c3ccccc32)cc1 | inactive: -6.88%
O=C(NCC1CCCO1)c1nn2c(C(F)(F)F)cc(-c3cc(Br)cs3)nc2c1Br (stereo not given) | inactive: 4.67%
COc1ccc(NC(=S)N2CCC(N(C)CCN3CCOCC3)CC2)cc1Cl | inactive: 9.8%
COc1ccc2nc(Cl)cc(Cl)c2c1 | inactive: -7.84%
O=C(NCCC1=CCCCC1)C1CCN(S(=O)(=O)c2ccccc2)CC1 | inactive: -6.71%
COc1ccc(NC(=O)c2cc(C3CCCCN3S(=O)(=O)c3ccccc3)on2)c(C)c1 (stereo not given) | inactive: 19.1%
CCCn1nnnc1NC(=O)COc1ccc(Cl)c(C)c1 | inactive: 29.8%
CC(=O)NC1=NN(C(C)=O)C(c2ccc(F)cc2)S1 (stereo not given) | inactive: -4.48%
CC(C)(C)c1ccc(/C=N/Nc2ccc(C(=O)O)cc2)cc1 | inactive: -82.3%
CCCOc1ccc2cc(-c3ccccn3)c(=O)oc2c1 | inactive: -15.1%
COc1ccccc1CCC(=O)OCC(=O)Nc1c(Br)cc(C)cc1Br | inactive: 3.73%
COc1cc2ccccc2cc1C(=O)Nc1ccc(NC(=O)c2cccs2)cc1 | inactive: 5.77%
CN1C(=O)Cc2cc(S(=O)(=O)Nc3ccc(N4CCOCC4)cc3)ccc21 | inactive: 9.85%
COCCNC(=O)C1(C)CCCN(C(=O)c2cc(OC)c(OC)c(OC)c2)C1 (stereo not given) | inactive: 4.9%
Cc1ccc(C(=O)N/C(=C\c2ccco2)C(=O)N2CCCCC2)cc1 | inactive: 22%
COc1ccccc1NC(=O)C1CCCN(C(=O)NCc2ccccc2)C1 (stereo not given) | inactive: 7.95%
Cn1c(=O)c2c(ncn2CC(=O)Nc2ccc3c(c2)OCO3)n(C)c1=O | inactive: 15.6%
CCC(C)/C(C)=N/NC(=O)c1cn(-c2ccccc2)nc1-c1ccccc1 (stereo not given) | inactive: -2.96%
O=C(NC1CCS(=O)(=O)C1)/C(=C/c1ccco1)NC(=O)c1ccccc1 (stereo not given) | inactive: -16.3%

Compound | growth rescue (activation)
CCOC(=O)c1c(CC(C)C)csc1NC(=O)COC(=O)c1ccc(O)cc1 | inactive: 22.2%
CC(Sc1nnc(-c2ccccc2)c(-c2ccccc2)n1)C(=O)NCC1CCCO1 (stereo not given) | inactive: -17.4%
O=S(=O)(NCc1cn2ccccc2n1)c1cc(F)ccc1F | inactive: 1.04%
O=C(CSc1ccccc1)N1CCN(S(=O)(=O)c2ccccc2F)CC1 | inactive: 2.63%
COC(=O)c1c(C)[nH]c(C(=O)CC#N)c1C | inactive: -0.973%
NC(=NC(=O)c1ccccc1)N1CCN(C(c2ccccc2)c2ccccc2)CC1 | inactive: -9.97%
Cc1ccc2[nH]c(=O)c3cc(C(=O)NC(C)C)sc3c2c1 | inactive: 1.67%
CCCN1Cc2cccc(C(=O)NC(CC(=O)OCC)c3ccc(OC(C)C)cc3)c2C1=O (stereo not given) | inactive: -3.64%
Clc1ccc(Cl)c(OCCCCNCc2ccccc2)c1 | inactive: -29%
COc1cc(/C=C/C(=O)NCCN2CCOCC2)cc(OC)c1OC | inactive: 12.4%
Cc1ccc(C(C(=O)NC2CCCC2)N(Cc2ccc(F)cc2)C(=O)c2snc(C(N)=O)c2N)o1 (stereo not given) | inactive: 14.6%
COc1ccc(C(=O)NNC(=O)Cc2coc3cc(OC)ccc23)cc1 | inactive: -15.8%
CCn1cc(CCC(=O)NC2CCCC2)c2ccccc21 | inactive: 3.24%
O=C(COC(=O)/C=C/c1ccc(Cl)cc1)NC(=O)NCc1ccccc1 | inactive: -16%
Cc1ccc(C(=O)OCC(=O)Nc2c(C)n(C)n(-c3ccccc3)c2=O)cc1[N+](=O)[O-] | inactive: -2.37%
COCCNC(=S)NCc1cccs1 | inactive: 2.97%
CC(C)c1ccc(NC(=O)C2Cc3c(-c4ccc(Cl)cc4)ccnc3O2)cc1 (stereo not given) | inactive: 3.79%
CCN(CC)c1ccc(/C=c2\sc3nnc(-c4ccccc4Cl)n3c2=O)cc1 | inactive: 30.9%
C#CCNC(=O)c1csc([C@@H]2O[C@H](CO)[C@@H](O)[C@H]2O)n1 | inactive: -1.08%
CCC(C)[C@H](NC(=O)OC(C)(C)C)C(=O)N/N=C/c1ccc2cc(OC)ccc2n1 (stereo not given in full) | inactive: 2.34%
CCN1CCN(c2ccc(S(=O)(=O)N(CC)CC)cc2[N+](=O)[O-])CC1 | inactive: 10.6%
COCCn1nnnc1CN(Cc1cc2cc(OC)c(OC)cc2[nH]c1=O)C1CCCC1 | inactive: 33.7%
CC1(C)NC(=O)N(CC(O)COc2ccccc2[N+](=O)[O-])C1=O (stereo not given) | inactive: -0.491%
CC(=O)c1cc2c(cc1NC(=O)c1ccco1)OCCO2 | inactive: 11.4%
Cc1oc(-c2cccs2)nc1CN1CCN(Cc2ccc(F)c(F)c2)C(CCO)C1 (stereo not given) | inactive: 9.5%
COc1cc(/C=N/NC(=O)C2COc3ccccc3O2)ccc1O (stereo not given) | inactive: -4.27%
O=C(NC1CCSC1=O)c1cccc(Cl)c1 (stereo not given) | inactive: -2.51%

Compound | growth rescue (activation)
Cn1c(CC(=O)Nc2ccccc2)nnc1SCC(=O)Nc1ccc(N2CCOCC2)cc1 | inactive: -9.53%
Cc1ccc(NC(=O)C2CCCN2S(=O)(=O)c2ccc3c(c2)n(C)c(=O)c(=O)n3C)cc1 (stereo not given) | inactive: -30.9%
N#CC1(c2cccc(Br)c2)C(=O)Nc2ccccc21 (stereo not given) | inactive: -0.794%
CCOC(=O)/C(C#N)=C/N=c1ccc(C)cn1C | inactive: 5.9%
CC(=O)Nc1ccc(NC(=O)CSc2nc3ccccc3c(=O)n2CCCN2CCOCC2)cc1 | inactive: 2.61%
COC(c1ccccc1)c1nnc(CCC(=O)N(C)CCc2ccccc2)o1 (stereo not given) | inactive: 2.31%
Cc1ccc(NC(=O)CSc2ccccn2)cc1S(=O)(=O)N1CCOCC1 | inactive: -12.6%
CCC1=Nc2ccc(Br)cc2C(c2ccccc2)N1CC(=O)OC (stereo not given) | inactive: 23.9%
Cc1cc(-n2cccn2)ccc1CN1CCN(C2CCCC2)C(CCO)C1 (stereo not given) | inactive: 0.665%
CC(=O)OCCN1C(=O)c2ccc(-c3nc4ccccc4c(=O)o3)cc2C1=O | inactive: 21.9%
COc1ccc(C)cc1NC(=O)CN(c1ccccc1F)S(C)(=O)=O | inactive: 7.21%
COc1ccc(N(C(=O)CNC(=O)c2ccco2)C(C(=O)NC2CCCCC2)c2ccncc2)cc1 (stereo not given) | inactive: -0.562%
O=C(NCc1ccc2c(c1)OCO2)C1CCC(CNS(=O)(=O)c2ccccc2)CC1 (stereo not given) | inactive: 2.45%
COC(=O)C1(C)NC(c2ccccc2C)C2C(=O)N(c3ccc(F)cc3)C(=O)C21 (stereo not given) | inactive: 1.33%
CC1=C(C(=O)N2CCN(c3cccc(C(F)(F)F)c3)CC2)C2(CCCCC2)OC1=O | inactive: -5.08%
CC(C)C(=O)Nc1ccc(N2CCN(c3ccc(F)cc3)CC2)cc1 | inactive: 9.36%
CCOC(=O)c1c(C)[nH]c(N=Nc2cc(C(=O)O)cc(C(=O)O)c2)c1C | inactive: 3.34%
Nc1nonc1C(=O)NCCNS(=O)(=O)c1ccc(F)cc1 | inactive: 19.7%
COc1ccc(-n2ncc3c(=O)n(CC(=O)Nc4ccc5c(c4)OCCO5)cnc32)cc1 | inactive: -7.73%
CC(C)C(NC(=O)C1CCC(C(C)(C)C)CC1)C(=O)NCCCN1CCCCC1 (stereo not given) | inactive: 7.02%
O=C1CCC(=O)N1c1ccc(S(=O)(=O)Nc2ccc(Br)cc2)cc1 | inactive: -9.35%
COCCn1c(COc2cccc(OC)c2)nnc1SCC(=O)NC1CCCCC1 | inactive: -13.2%
Cc1cc(C)cc(N(CC(=O)N/N=C/c2ccncc2)S(=O)(=O)c2ccccc2)c1 | inactive: 17.4%
Nc1n[nH]c(CCCO)n1 | inactive: 21.5%
